# Whole data set: some 33,000 sequences, median “E-score (-0.5 to 0.5)” near -0.035, cut for the highest 2% near 0.35. The list shows a part of the results.
# Molecular target: T1, Pdr3 (UniProt P33200)
# T1 sequence: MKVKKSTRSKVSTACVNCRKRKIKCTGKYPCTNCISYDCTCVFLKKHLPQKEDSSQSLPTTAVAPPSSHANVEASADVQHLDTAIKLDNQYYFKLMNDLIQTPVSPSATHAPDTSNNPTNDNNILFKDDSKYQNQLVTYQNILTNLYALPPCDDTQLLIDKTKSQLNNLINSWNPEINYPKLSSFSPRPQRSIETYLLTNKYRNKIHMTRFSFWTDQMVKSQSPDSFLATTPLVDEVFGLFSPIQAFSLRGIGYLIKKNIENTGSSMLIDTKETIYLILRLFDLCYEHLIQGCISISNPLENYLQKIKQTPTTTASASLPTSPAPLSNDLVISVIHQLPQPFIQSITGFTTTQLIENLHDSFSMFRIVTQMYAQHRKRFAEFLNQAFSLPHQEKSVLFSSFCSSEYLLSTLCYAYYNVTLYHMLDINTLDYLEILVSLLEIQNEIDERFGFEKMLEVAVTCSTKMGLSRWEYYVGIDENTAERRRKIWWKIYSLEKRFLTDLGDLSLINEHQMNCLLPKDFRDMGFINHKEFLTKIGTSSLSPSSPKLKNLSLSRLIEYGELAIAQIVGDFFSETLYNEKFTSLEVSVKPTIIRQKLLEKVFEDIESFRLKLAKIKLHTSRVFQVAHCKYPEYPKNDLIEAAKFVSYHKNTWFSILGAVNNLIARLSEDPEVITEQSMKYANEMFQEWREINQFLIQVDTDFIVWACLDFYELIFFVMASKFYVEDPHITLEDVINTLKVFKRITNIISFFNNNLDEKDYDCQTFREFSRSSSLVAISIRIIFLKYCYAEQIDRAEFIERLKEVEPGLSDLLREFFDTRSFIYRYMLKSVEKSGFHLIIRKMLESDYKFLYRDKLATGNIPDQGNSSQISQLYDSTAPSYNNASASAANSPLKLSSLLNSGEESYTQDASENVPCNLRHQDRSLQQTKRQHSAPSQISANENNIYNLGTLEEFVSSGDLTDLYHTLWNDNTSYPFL
# Assay: PBM E-score (8-mer binding enrichment) (E-score (-0.5 to 0.5)); higher = stronger / more preferred TF binding; most listed sequences are background and not binding sites
# Conditions: protein concentration: 200 nM; construct: GST-full length
# Protocol: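 Universal 'all 10-mer' protein binding microarrays (Agilent AMADID 015681) probed with GST-tagged S. cerevisiae TFs (full-length or DBD) made by in vitro transcription/translation (PURExpress), about 100-200 nM. Bound TF was detected with fluorescent anti-GST. Each ungapped 8-mer (which stands for itself and its reverse complement) is scored by the PBM enrichment score (E-score), a modified Wilcoxon-Mann-Whitney statistic from -0.5 to +0.5, computed with the Universal PBM Analysis Suite. Scale: above 0.35 generally sequence-specific binding.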
row,Sequence,PBM E-score
1,CTTAGCTA,-0.199
2,AGCTACGC,-0.107
3,TAAAGAAA,-0.0608
4,ACGTTAGG,-0.263
5,ACGAACGC,0.147
6,AAACAGCC,-0.114
7,GCTACGAA,-0.194
8,ATGATTGG,0.0449
9,ACTCATCC,0.0641
10,GACCCACC,-0.0584
11,GATACCCA,-0.0647
12,AACGCTCC,-0.158
13,CAATCTGG,-0.0845
14,CACATTAA,-0.168
15,TAGATCAA,-0.14
16,AAAGTGAT,-0.0819
17,AAAGCGTA,-0.0399
18,GCACGATA,-0.0499
19,ACTAAAGC,-0.128
20,AGCCTGAC,-0.259
21,GCATGTAA,-0.216
22,ATCAGGCA,-0.0749
23,ACCTCTCT,-0.247
24,ACCATCCA,-0.0478

row,Sequence,PBM E-score
1,CCATCAAG,-0.157
2,GGACTCCA,0.0677
3,AGAAAACG,-0.0597
4,CCCCATGA,-0.132
5,CATACCTC,-0.0216
6,CCTGGGCA,-0.232
7,ATTAAGCG,-0.0117
8,CGTCCGGA,0.433
9,ACGTCTAT,-0.168
10,CACGTATA,-0.0998
11,GGCAAACC,-0.147
12,AGCGTTCA,-0.283
13,TAACCTCA,-0.156
14,CATCGGAC,0.143
15,AAATCTGA,-0.0704
16,AGCTATGA,-0.121
17,GCGGTGAA,0.0612
18,ACTGTTCA,-0.00555
19,TCGCTAAA,-0.126
20,AGGTCCAT,-0.0122
21,CACTCACA,0.0916
22,AGGCCGCA,-0.0397
23,ATTATATA,-0.00217
24,CCGACACA,0.0855

row,Sequence,PBM E-score
1,CGATATCA,0.135
2,CACCGTCC,0.125
3,AATCGCCG,0.142
4,GCCGGTGA,0.123
5,AGATAAAA,0.0553
6,AATTTCGT,-0.113
7,CGCTTGAG,-0.0477
8,AAGCGACA,0.0716
9,AAGGTAGT,0.0778
10,AACGCAGC,0.0532
11,AGTAACGA,-0.104
12,GACACATA,-0.00152
13,AGGAACTC,0.0544
14,AATTACTA,0.0014
15,CATATTAC,0.0911
16,AATTGCTA,-0.0798
17,CTCCTCCC,-0.0826
18,ACCCCCGT,-0.123
19,CCTTACGC,-0.0975
20,ATGAGTCG,-0.131
21,GACAGCTA,-0.188
22,ATTCTGGG,0.033
23,AAACCAAG,-0.169
24,CATACTCC,0.18

row,Sequence,PBM E-score
1,AGTTGCTG,-0.00673
2,AAGATACG,0.0392
3,CGCATAAG,-0.0423
4,GCTGAAAC,0.0574
5,AATGCTGG,0.00689
6,AGACTCGC,-0.134
7,ACGGGGCA,0.05
8,ATGCACAG,-0.0979
9,AAAACAGG,-0.332
10,CAGTCAAC,-0.134
11,CAGTTTTC,0.112
12,AGCCTGAG,-0.389
13,AGACAACC,0.0741
14,AATGTCAA,-0.113
15,GGTCGGAA,0.4
16,AGGACGTA,-0.0667
17,ACAGGTTC,-0.0996
18,CGATACCG,0.177
19,AAGTAGGA,-0.355
20,CCCATCGA,0.0121
21,GTAAGTGA,0.085
22,CGATATGA,0.102

# Source: the supplement of paper PMC3334620
